Where a chain is given by its changes, count along the chain named. Numbers in names are those of the source. No constants are given. Whether binding was seen depends on the method and setting. Binding seen in cells or lysates may run through a third protein. Some results given as binding are weak or reduced against the parent protein; the word gives no strength. Where a sequence is shown, tags or fusion partners need not be part of it.
T1: TRX1 C35S-SBP-6xHis (Thioredoxin1 trapping mutant) (UniProt P10599)
T1 sequence: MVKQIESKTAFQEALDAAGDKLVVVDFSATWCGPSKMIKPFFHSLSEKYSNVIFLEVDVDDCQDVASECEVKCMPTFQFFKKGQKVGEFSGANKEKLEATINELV

B1: Wildtype (wt) LPL transiently expressed in HEK293 cells (protein, UniProt P13796 1-627)
chain: MARGSVSDEEMMELREAFAKVDTDGNGYISFNELNDLFKAACLPLPGYRVREITENLMATGDLDQDGRISFDEFIKIFHGLKSTDVAKTFRKAINKKEGICAIGGTSEQSSVGTQHSYSEEEKYAFVNWINKALENDPDCRHVIPMNPNTNDLFNAVGDGIVLCKMINLSVPDTIDERTINKKKLTPFTIQENLNLALNSASAIGCHVVNIGAEDLKEGKPYLVLGLLWQVIKIGLFADIELSRNEALIALLREGESLEDLMKLSPEELLLRWANYHLENAGCNKIGNFSTDIKDSKAYYHLLEQVAPKGDEEGVPAVVIDMSGLREKDDIQRAECMLQQAERLGCRQFVTATDVVRGNPKLNLAFIANLFNRYPALHKPENQDIDWGALEGETREERTFRNWMNSLGVNPRVNHLYSDLSDALVIFQLYEKIKVPVDWNRVNKPPYPKLGGNMKKLENCNYAVELGKNQAKFSLVGIGGQDLNEGNRTLTLALIWQLMRRYTLNILEEIGGGQKVNDDIIVNWVNETLREAKKSSSISSFKDPKISTSLPVLDLIDAIQPGSINYDLLKTENLNDDEKLNNAKYAISMARKIGARVYALPEDLVEVNPKMVMTVFACLMGKGMKRV
modifications: oxidised after H2O2 treatment of the cells
B2: C42A LPL transiently expressed in HEK293 cells (protein, UniProt P13796 1-627)
chain: B1 chain with C42A
B3: wt LPL-FLAG stably expressed in MV3 melanoma cells (protein, UniProt P13796 1-627)
chain: B1 chain
modifications: oxidised (TRX1 knockdown, H2O2 or gamma-irradiation of the cells)
B4: PRX1, endogenous in PC3 cells (enzyme, UniProt Q06830 1-199)
chain: MSSGNAKIGHPAPNFKATAVMPDGQFKDISLSDYKGKYVVFFFYPLDFTFVCPTEIIAFSDRAEEFKKLNCQVIGASVDSHFCHLAWVNTPKKQGGLGPMNIPLVSDPKRTIAQDYGVLKADEGISFRGLFIIDDKGILRQITVNDLPVGRSVDETLRLVQAFQFTDKHGEVCPAGWKPGSDTIKPDVQKSKEYFSKQK
B5: PRX1, endogenous in MV3 cells (enzyme, UniProt Q06830 1-199)
chain: B4 chain
B6: C101A LPL transiently expressed in HEK293 cells (protein, UniProt P13796 1-627)
chain: B1 chain with C101A

target: T1, TRX1 C35S-SBP-6xHis (Thioredoxin1 trapping mutant); test: pull-down; TRX1 kinetic trapping: TRX1-SBP-6xHis on streptavidin sepharose beads incubated 1.5 h at 4 °C with lysates (1% Triton X-100) of cells whose thiols were blocked with NEM; washes with 500 mM NaCl and 1 M urea; eluted with 5 mM biotin; immunoblot under reducing and nonreducing conditions; mixed disulfide (covalent) intermediates; cells treated beforehand with H2O2 (1-100 uM), auranofin, gamma-irradiation (30 or 60 Gy) or TRX1 knockdown; only the target purified

Row | Binder | binding
1 | B1 | binds
2 | B2 | binds
3 | B3 | binds
4 | B4 | binds
5 | B5 | binds
6 | B6 | no binding

— article PMC6733871
